Assay [1] has as its system 10^6 spores of B. subtilis var. niger ATCC # 9372. Format: cell-based, Bacillus subtilis var. niger.
The subject of assay [2] is 10^5 of B. stearothermophilus ATCC # 7953. Nature of the assay: Trailer field fumigation, combined-species spore strips incubated for B. stearothermophilus. Conditions: 303.7 oz/1,000 ft^3, 48 hours. Format: cell-based, Bacillus stearothermophilus.
Assay [3] concerns B. subtilis var. niger strips containing 10^8 spores. The format is cell-based, Bacillus subtilis var. niger.

SMILES strings stand for the structures.

`CBr` [methyl bromide]: the “incubation result 10^6 B. sub.” value in assay [1] is recorded as “pass”. Further, the “incubation result 10^5 B. stear.” value in assay [2] (trailer loc. 3-Behind wall paneling in insulation, mean 95.12 °F) is on record as “pass”; in assay [2] (trailer loc. 6-Closed kitchen cabinet, […]) it was “pass”; in assay [2] (trailer loc. 7-PC keyboard, inside back cover, […]) it was “pass”; in assay [2] (trailer loc. 8-PC CD tray, closed, […]), “pass”; in assay [2] (trailer loc. 9-Desk drawer, closed, […]) it was “pass”; in assay [2] (trailer loc. 10-Desk drawer, in closed hanging file, […]), “pass”. The “incubation result 10^5 B. stear.” value is reported as “pass” in assay [2] (trailer loc. 11-Ceiling surface, exposed, […]); “pass” in assay [2] (trailer loc. 12-Floor surface, in closed folder, […]); “pass” in assay [2] (trailer loc. 13-Mattress, under box spring, […]); “pass” in assay [2] (trailer loc. 14-Hall closet, closed, […]); “pass” in assay [2] (trailer loc. 15-Medicine cabinet, closed, […]); “pass” in assay [2] (trailer loc. 16-Light fixture, secured globe, […]). In addition, the “incubation result 10^5 B. stear.” value in assay [2] (trailer loc. 17-Central AC inlet, behind filter, […]) is listed as “pass”; in assay [2] (trailer loc. 18-Window AC, behind filter, […]) it was “pass”; in assay [2] (trailer loc. 19-Under newspapers, […]), “pass”. In addition, the “sites at which 3 of 4 strips were killed” value in assay [3] came to 10%. Further, the “sites at which all four test strips were killed” value in assay [3] was 90%. Further, the “sites at which both B. subtilis 10^8 strips produced no vegetative cells during incubation” value in assay [3] came out at 16 sites. Besides, the “sites at which only one 10^8 strip survived” value in assay [3] (trailer fumigation, 20 sites, 48 hours) is “four”.

These data come from patent US20040197222A1 (priority 2002, published 2004).
